# From paper PMC12040169 (PLOS Biology, 2025)
# Some of the results follow.
# Test system: T1, C. trachomatis L2/434/Bu expressing GFP (CTL2-GFP)
# T1 construct: L2/434/Bu GFP intracellular growth in HeLa cells
# Parameters: species or system HeLa; C. trachomatis total inclusion area by high-content imaging, normalised to DMSO
# Details: total inclusion area; 28.5 h, 10 µM; inhibitor
# Outline: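 Bulk GFP and resorufin signals were read first. Wells were then fixed, stained with Hoechst and imaged to detect GFP inclusions and host nuclei. MICs followed the previously described calculation.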
row,SMILES,% of control remaining
1,COc1ccc(C2(C(=O)NCc3ccc(Cl)c(Cl)c3)CC2)cc1 [CBK149827],82.0948
2,CC1(C)C2CCC1(CS(=O)(=O)N(Cc1ccccc1)Cc1ccccc1)C(=O)C2 (stereo not shown) [CBK266082],70.6012
3,OCCN1CC2(CCN(Cc3cccc(Oc4ccccc4)c3)CC2)c2ccccc21 [CBK131528],91.4019
4,COc1cccc(NC(=O)CSc2nnc(CC(C)C)n2C)c1 [CBK269626],96.6424
5,CC(C)(C)C(=O)Nc1ccc(C(=O)Nc2cccc(C(=O)O)c2)cc1 [CBK261329],96.5825
6,Cc1ccc(SCCNCCN2CCOCC2)cc1 [CBK268581G],111.653
7,COCCNC(=O)C1(O)c2ccccc2NC(=O)N1c1cccc(OC)c1 (stereo not shown) [CBK288589],109.676
8,COc1ccc(C(=O)Nc2ccc(N3CCNCC3)nc2)cc1 [CBK029434T],87.768
9,COc1ccc(C(=O)OC(C)(C)C)c(-c2cncc(NCc3ccco3)n2)c1 [CBK037751],115.6
10,CCc1noc(C)c1C(=O)NCc1cccnc1N(C)C1CCCCC1 [CBK306804],89.7706
11,COC(=O)c1cn(C(=O)c2snnc2C)nc1C(C)(C)C [CBK021420],88.5192
12,CN1CCN(c2nc(-c3ccoc3)cnc2N)CC1 [CBK063362],114.203
13,CC(C)N(CCC(c1ccccc1)c1cc(Br)ccc1OCc1ccccc1)C(C)C (stereo not shown) [CBK017656],19.3551
14,Cc1ccc(NC(=O)c2ccc(-n3nncc3C)cc2)cc1 [CBK287790],91.9185
15,CCOC(=O)c1cc(C)sc1NC(=O)CCC(=O)O [CBK265412],84.2374
16,C[C@H](NC(=O)OC1CC[C@@]2(c3ccccc3)CCN(C)[C@H]2C1)c1cccc2ccccc12 (stereo partly shown) [CBK003664],61.8113
17,CCOC(=O)c1[nH]c2c([N+](=O)[O-])cccc2c1O [CBK115315],72.1828
18,Cc1cc2nc(NC(=N)N)nc(C)c2cc1C [CBK262269],62.0723
19,Cn1ncc2c1CCCN(C(=O)CCCOc1ccccc1F)C2 [CBK285278],91.461
20,O=C(O)CSCC(=O)N(Cc1ccccc1)c1nc(-c2ccccc2)c(-c2ccccc2)s1 [CBK296138],127.041

row,SMILES,% of control remaining
1,CNCc1cccc(OC)c1OCc1ccccc1F [CBK269949C],100.865
2,COCCOCC(C)NC(=O)COc1nn(C)c2nc(C)cc(C)c12 (stereo not shown) [CBK305177],77.6295
3,CCC(C)(C)c1ccc(S(=O)(=O)N2CCN(Cc3ccc(O)c(F)c3)CC2)cc1 [CBK062968],99.3418
4,O=C(CCCn1cccn1)N1CCCN(Cc2ccc(F)cc2)CC1 [CBK304641],35.8694
5,CCc1onc(C)c1C(=O)NCC1CCCCN1CC(C)C (stereo not shown) [CBK305124],51.0099
6,COc1ncc(-c2cnc3[nH]c(=O)n(C4CC4)c3n2)cn1 [CBK064908],155.714
7,COc1cccc(Cc2c(C)nc3c(C(=O)NCCCN4CCCC4=O)cnn3c2C)c1 [CBK162055],64.8271
8,Cc1cc(Cl)ccc1CNC(=O)c1ccccc1Nc1cccc(C(F)(F)F)c1 [CBK149544],83.747
9,CCN1CCN(C2CCN(Cc3ccccc3[N+](=O)[O-])CC2)CC1 [CBK264631G],122.129
10,O=C(Nc1cccc(Cn2cccn2)c1)c1csc2ccccc12 [CBK268123],107.07
11,CC(C)C(=O)N1CC2(CCN(Cc3nc4ccccc4s3)CC2)c2ccccc21 [CBK136980],85.2977
12,Cc1cc(Cl)ccc1CNC(=O)c1ccc(-c2ccoc2)nc1 [CBK156254],101.281
13,COc1cncc(-c2cncc(N[C@H](CO)C(C)C)n2)c1 [CBK065329],113.449
14,Cc1nc(CN2CCN(CCc3ccccc3)CC2)cs1 [CBK126457],83.6425
15,CC(C)C(CNCc1ccc(F)c(Cl)c1)c1ccnn1C (stereo not shown) [CBK305130],70.6563
16,Cc1cc(NC(=O)c2cccc(Br)c2)nc2c1c(=O)oc1ccccc12 [CBK291238],105.119
17,Cn1c2c(c(=O)n(C)c1=O)CN(CCN1CCNCC1)CN2 [CBK265218],115.06
18,Cc1ccc(OC(C)C(=O)NCc2ccccc2)cc1 (stereo not shown) [CBK269016],97.1359
19,Sc1nnc(-c2ccncc2)n1/N=C/c1c[nH]c2ccccc12 [CBK265272],101.584
20,COc1ccc(S(=O)(=O)N(C)c2ccc(C(=O)NCc3ccccn3)cc2)cc1 [CBK269099],121.58
